The values below come from PubChem BioAssay AID1745853 (National Center for Advancing Translational Sciences (NCATS), 2022).

Common to all, as to assay: Primary Screen for Target Class Profiling of Small Molecule Inhibitors of Methyltransferases
For experiment [1], the target named is Glycine N-methyltransferase (Homo sapiens) (UniProt Q14749). As to conditions: purified enzyme, MTase-Glo SAH luminescence; measured here: GNMT inhibition; at 40 µM; stronger effect = lower value. A digest of the protocol: (§1)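 Each enzyme was reacted with SAM and its substrate, with compounds tested once at 40 uM; SAH formed was read by MTase-Glo luminescence.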
The target of experiment [2] is Guanidinoacetate N-methyltransferase (Homo sapiens) (UniProt Q14353). As to conditions: purified enzyme, MTase-Glo SAH luminescence; measured here: GAMT inhibition; at 40 µM; stronger effect = lower value. Summed up: as §1
Experiment [3] concerns the target Histamine N-methyltransferase (Homo sapiens) (UniProt P50135). Conditions: purified enzyme, MTase-Glo SAH luminescence; measured here: HNMT inhibition; at 40 µM; stronger effect = lower value. A digest of the protocol:
as §1

Experiment [4] has as its target Nicotinamide N-methyltransferase (Homo sapiens) (UniProt P40261). As to conditions: purified enzyme, MTase-Glo SAH luminescence; measured here: NNMT inhibition; at 40 µM; stronger effect = lower value. A digest of the protocol:
as §1

Experiment [5] has as its target Phenylethanolamine N-methyltransferase (Homo sapiens) (UniProt P11086). As to conditions: purified enzyme, MTase-Glo SAH luminescence; measured here: PNMT inhibition; at 40 µM; stronger effect = lower value. A digest of the protocol: as §1

The list shows a part of the results. The main result of the screen is listed elsewhere. These columns were measured beside it and carry no call.
% is set by controls: 0 for no effect and ±100 for the full control effect.

With `Cc1ccc(Cn2c(=O)c3ccc(C(=O)NC(C)C)cc3n3c(=O)n(Cc4ccccc4F)nc23)cc1`, the activity change, negative = inhibition in experiment [1] was 3.17%; in experiment [2], 0.594%; in experiment [3], -3.17%; in experiment [4], 1.3%; in experiment [5], 4.82%.

Turning to `O=C(NCc1ccccc1F)c1ccc2c(=O)nc3c(-c4cccc(F)c4)n[nH]n3c2c1`, the activity change, negative = inhibition in experiment [1] was -7.02%; in experiment [2], 3.81%; in experiment [3], 8.28%; in experiment [4] it was 0.413%; in experiment [5] it was -2.87%.

Take `Cc1ccc(NC(=O)Cn2nc3n(Cc4ccc(F)cc4)c(=O)c4ccccc4n3c2=O)c(Cl)c1`: the activity change, negative = inhibition in experiment [1] is 0.171%; in experiment [2] it was 0.517%; in experiment [3], 1.9%; in experiment [4], -1.81%; in experiment [5] it was -2.09%.

As for `COC(=O)c1cc2n(n1)CC(C)(C(=O)NC1CCCCCC1)N(c1ccc(F)cc1)C2=O` (stereo not drawn), the activity change, negative = inhibition was -3.55% in experiment [1]; 0.415% in experiment [2]; -0.641% in experiment [3]; -6.14% in experiment [4]; -6.4% in experiment [5].

Take `CC(C)C1NC(=O)C2CCCN2C1=O` (stereo not drawn): the activity change, negative = inhibition is 4.43% in experiment [1]; 3.75% in experiment [2]; 11% in experiment [3]; -8.46% in experiment [4]; 6.35% in experiment [5].

Regarding `COCCOc1nc(-c2ccc(Cl)c(Cl)c2)n(-c2ccc(NC(=O)CCl)cc2)n1`, the activity change, negative = inhibition in experiment [1] was -16.9%; in experiment [2], -11.5%; in experiment [3], -8.61%; in experiment [4], -31.2%; in experiment [5], -6.34%.

`CCCC1c2cccn2CCN1C(=O)NCCOC` (stereo not drawn): the activity change, negative = inhibition in experiment [1] was determined as 1.42%; in experiment [2] it was 0%; in experiment [3] it was 9.04%; in experiment [4], 0.275%; in experiment [5], 3.36%.

In the case of `CCCn1c(=O)c2ccc(C(=O)NCC(C)C)cc2n2c(=O)n(CC(=O)c3ccccc3)nc12`, the activity change, negative = inhibition is -1.84% in experiment [1]; 4.59% in experiment [2]; 3.21% in experiment [3]; -1.43% in experiment [4]; 2.68% in experiment [5].

Turning to `CCCC1c2cccn2CCN1C(=O)Nc1cccc(SC)c1` (stereo not drawn), the activity change, negative = inhibition was -4.59% in experiment [1]; 0% in experiment [2]; -23.7% in experiment [3]; -6.98% in experiment [4]; -1.6% in experiment [5].

As for `CCCn1c(=O)c2ccc(C(=O)NCC(C)C)cc2n2c(=O)n(CC(=O)N(C)c3ccccc3)nc12`, the activity change, negative = inhibition in experiment [1] stood at 7.92%; in experiment [2], 0.76%; in experiment [3] it was 3.18%; in experiment [4], 8.56%; in experiment [5], 7.62%.

For `NC(=O)[C@H]1C[C@@H](O)[C@H](O)[C@H]2[C@@H]1SC(=Nc1ccc(Cl)cc1)N2Cc1ccc(F)cc1`, the activity change, negative = inhibition in experiment [1] was -2.24%; in experiment [2], -0.408%; in experiment [3], -0.689%; in experiment [4], -2.94%; in experiment [5], 4.07%.

Turning to `COc1ccc(C(=O)N2CCCC3(CN[S+](=O)([O-])c4ccccc4N3)C2)cc1` (stereo not drawn), the activity change, negative = inhibition in experiment [1] is -2.21%; in experiment [2] it was -0.92%; in experiment [3] it was -0.697%; in experiment [4] it was -3.8%; in experiment [5], 1.53%.

In the case of `CC12CCC(C(OC3OC(COC4OCC(O)(CO)C4O)C(O)C(O)C3O)C1)C(C)(C)O2` (stereo not drawn), the activity change, negative = inhibition in experiment [1] is 3.1%; in experiment [2] it was 3.11%; in experiment [3] it was 9.57%; in experiment [4] it was -8.02%; in experiment [5], 6.41%.

Consider `C[C@@H]1CN(C(=O)c2ccc(Cn3cnnn3)cc2)C[C@@]1(O)C1CCC1`, for which the activity change, negative = inhibition is -0.516% in experiment [1]; -1.21% in experiment [2]; 1% in experiment [3]; -0.55% in experiment [4]; -1.86% in experiment [5].

Regarding `CCCN(CCC)CCCN1C(=O)c2cc3sccc3n2CC1(C)C(=O)NC1CCCCCC1` (stereo not drawn), the activity change, negative = inhibition in experiment [1] was 4.84%; in experiment [2] it was 0.375%; in experiment [3], -3.8%; in experiment [4], 4.44%; in experiment [5], 5.4%.

Regarding `C[S+](=O)([O-])c1ccc(-c2cc(C(=O)N3CCOCC3)nn3cccc23)cc1`, the activity change, negative = inhibition in experiment [1] is -1.88%; in experiment [2], 0.895%; in experiment [3], -1.32%; in experiment [4], -1.94%; in experiment [5] it was 0.451%.

As for `COc1ccc(C)cc1NC(=O)Cn1c(=O)oc2cc(S(=O)(=O)N3CCCC3)ccc21`, the activity change, negative = inhibition in experiment [1] was -7.33%; in experiment [2], 3.18%; in experiment [3], -1.14%; in experiment [4], -1.65%; in experiment [5], -5.2%.

Turning to `Oc1ccc(C2CNCCc3c2cc(O)c(O)c3Cl)cc1` (stereo not drawn), the activity change, negative = inhibition in experiment [1] is -43.7%; in experiment [2] it was 0.885%; in experiment [3] it was -40.2%; in experiment [4] it was -9.6%; in experiment [5], 4.68%.

On to `CC1CCCCC1NC(=O)Cn1ccc2cc(S(=O)(=O)N3CCCC3)ccc21` (stereo not drawn), for which the activity change, negative = inhibition in experiment [1] is -1.79%; in experiment [2] it was 0.7%; in experiment [3], -5.59%; in experiment [4], -7.75%; in experiment [5], -7.92%.

With `N#Cc1cc2c(=O)n(CCCCN3CCCC3)ccc2[nH]c1=O`, the activity change, negative = inhibition in experiment [1] was -2.88%; in experiment [2] it was -1.58%; in experiment [3] it was -32.4%; in experiment [4], -0.841%; in experiment [5] it was 1.46%.

Consider `Cc1ccc(-c2n[nH]n3c2nc(=O)c2ccc(C(=O)NC4CCC(C)CC4)cc23)cc1` (stereo not drawn), for which the activity change, negative = inhibition in experiment [1] was -14.6%; in experiment [2], 1.17%; in experiment [3], 4.03%; in experiment [4], 1.77%; in experiment [5], 0.563%.

Take `C=C1C(=O)OC2CC(COC(=O)C(C)C)=C(C(C)CCCOC(C)=O)[C@@H](OC(C)=O)C12` (stereo partly drawn): the activity change, negative = inhibition in experiment [1] was 0%; in experiment [2] it was 5.76%; in experiment [3], 7.03%; in experiment [4], -5.6%; in experiment [5], 3.44%.

As to `CC1CCC(NC(=O)C2(C)Cn3c(cc4sccc43)C(=O)N2Cc2ccc(OC(C)C)cc2)CC1` (stereo not drawn), the activity change, negative = inhibition is -2.99% in experiment [1]; 3.83% in experiment [2]; -3.3% in experiment [3]; -2.02% in experiment [4]; -6.19% in experiment [5].

Regarding `Cc1noc(-c2ccc(OC3CN(S(=O)(=O)c4c(C)noc4C)C3)cc2)n1`, the activity change, negative = inhibition in experiment [1] is -1.1%; in experiment [2] it was 1.06%; in experiment [3], 0.921%; in experiment [4], -2.17%; in experiment [5], -8%.

For the compound `C=C1C(=O)OC2C(OC(=O)C=C(C)C)C(C)=C3C(=O)C=C(C)C3C(O)C12` (stereo not drawn), the activity change, negative = inhibition in experiment [1] is 2.64%; in experiment [2], 1.22%; in experiment [3] it was 9.99%; in experiment [4], -7.89%; in experiment [5], 4.19%.

For the compound `CCC(C)C(=O)O[C@H]1[C@@H](OC(=O)c2ccoc2)C[C@](C)(O)[C@]23OC(C)(C)[C@H](C[C@H](OC(=O)c4ccoc4)[C@]12COC(C)=O)[C@H]3OC(C)=O` (stereo partly drawn), the activity change, negative = inhibition in experiment [1] is 0%; in experiment [2], 1.21%; in experiment [3], 2.67%; in experiment [4] it was -12.5%; in experiment [5] it was 5.78%.

Consider `CN1C(=O)c2cc(C(=O)NCCN3CCCC3)nn2CC1(C)C(=O)NC1CCCCC1` (stereo not drawn), for which the activity change, negative = inhibition in experiment [1] was 3.09%; in experiment [2], 8.51%; in experiment [3], 0.537%; in experiment [4], 6.02%; in experiment [5] it was 0.369%.

As for `CCNC(=O)N[C@H]1[C@H](O)[C@@H](N2CCN(c3ccccc3OC)CC2)[C@@H]2OC[C@H]1O2`, the activity change, negative = inhibition in experiment [1] was -1.59%; in experiment [2] it was -5.1%; in experiment [3] it was -0.313%; in experiment [4] it was -5.9%; in experiment [5], -3.09%.

`C[C@H](NCc1ccc(OCc2cccc(F)c2)cc1)C(N)=O`: the activity change, negative = inhibition in experiment [2] is 1.48%; in experiment [4] it was -14.5%; in experiment [5] it was 2.91%.
